Screen size: about 420,000 compounds; about 64,000 (15%) were called active. The shares of active, inactive and inconclusive entries below differ from those in the screen. Calls follow the shape of the dose curve; as a rule, active = well fitted inhibition curve with a large enough effect; inconclusive = small, poorly fitted or top-dose-only effect; inactive = flat fitted curve, though single readings scatter. No potency is given beside an inconclusive call; the fits are too rough.
Assay: qHTS for Inhibitors of human tyrosyl-DNA phosphodiesterase 1 (TDP1): qHTS in cells in absence of CPT; also: nearly all actives have a fitted effect of over 55% in size
Conditions: DT40 Tdp1-/- hTDP1 cells, no CPT, ATP luminescence, 48 h; activity change, negative = growth inhibition: at 46.2 µM (top of the series)
Summary of the method: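 Compound effects on proliferation are scored in DT40 Tdp1-/-;hTDP1 cells in the absence of CPT. ATP levels (CellTiter-Glo luminescence) are recorded after a ≥48 hr, 37 °C incubation.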
In the case of `Cc1nn(-c2ccccc2)c(C)c1C(=O)OCC(=O)Nc1cccc(S(N)(=O)=O)c1`, the Potency is reported as inconclusive [inhibitor, partial curve, poor fit]. For `Cc1oc(-c2cccs2)nc1CN1CC[C@@](O)(c2ccccc2)[C@H]2CCCC[C@@H]21`, the Potency was inconclusive [inhibitor, single point]. With `COc1ccc(-c2nc(-c3ccncc3)no2)c(OC)c1` the Potency was inconclusive [inhibitor, single point]. With `CCC(=O)N1CCCc2cc(S(=O)(=O)N3CCN(c4ccccn4)CC3)ccc21` the Potency was active: 20.6 µM. With `Cc1c(C(=O)N2CC[C@@H]3CCCC[C@H]3C2)sc2ncnc(NCCc3ccccn3)c12` the Potency was inconclusive [inhibitor, partial curve, poor fit]. With `O=C(/C(=N\Nc1ccc([N+](=O)[O-])cc1)Sc1nnnn1-c1ccccc1)c1ccccc1` the Potency was inconclusive [inhibitor, partial curve]. For `CC[N+](CC)(CC)c1ccc(/C=C/c2ccnc3ccccc23)cc1`, the Potency was active: 0.316 µM. In the case of `O=C(Nc1ccc(Oc2cccnc2)cc1)c1ccc([N+](=O)[O-])cc1`, the Potency is reported as inconclusive [inhibitor, partial curve]. For `CC1=CC(c2ccc(Cl)cc2)n2nc(NS(=O)(=O)c3ccc(C)cc3)nc2N1` (centres undefined), the Potency was inconclusive [inhibitor, single point]. For `Cc1cc(C)nc(NC(=O)CSc2nn(-c3ccccc3)c(=S)s2)n1`, the activity change, negative = growth inhibition was inconclusive: -31.7% [inhibitor]. For `COc1ccc(/C=C/C(=O)OCC(=O)c2ccccc2F)cc1`, the Potency was inconclusive [inhibitor, single point]. With `COCCn1c(=O)cnc2cnc(Oc3cccc(Cl)c3)nc21` the “activity change, negative = growth inhibition” value was inactive: -6.06%. With `O=C(Nc1cccc(Cl)c1)c1ccc(S(=O)(=O)NCC2CCCO2)cc1` (centres undefined) the Potency was inconclusive [inhibitor, full curve, poor fit]. With `COc1ccc(S(=O)(=O)N2CCOCC2)cc1NC(=O)CC1CC2CCC1C2` (centres undefined) the “activity change, negative = growth inhibition” value was inactive: 1.4%. With `O=C1CC(NS(=O)(=O)c2cccs2)CN1c1ccc(Cl)cc1` (centres undefined) the Potency was inconclusive [inhibitor, single point]. For `COc1ccc(NS(=O)(=O)c2ccc(C)c(C(=O)O)c2)cc1`, the “activity change, negative = growth inhibition” value was inactive: 3.21%. For `Cc1cc(F)ccc1NCc1ccccc1[N+](=O)[O-]`, the “activity change, negative = growth inhibition” value was inactive: -22.5%. For `Cn1c(N2CCN(c3ccccn3)CC2)nc2c1c(=O)n(Cc1ccccc1Cl)c(=O)n2C`, the Potency was inconclusive [inhibitor, single point]. For `CC(C)c1onc(C(=O)NCc2cccs2)c1[N+](=O)[O-]`, the Potency was inconclusive [inhibitor, single point]. In the case of `CCC(=O)c1ccc(OCC(=O)NCCC2=CCCCC2)c(OC)c1`, the Potency is reported as inconclusive [inhibitor, single point]. With `Cc1nccc(-c2cccc(N/N=C(\C#N)C(=O)c3ccccc3)c2)n1` the Potency was active: 10.3 µM. For `COc1cc2cc(C(=O)N3CCN(Cc4ccc5c(c4)OCO5)CC3)[nH]c2cc1OC`, the Potency was inconclusive [inhibitor, single point]. For `Cn1nc(C(F)(F)F)c(-c2ccc(Br)cc2)c1NC(=O)c1nccnc1C(=O)O`, the “activity change, negative = growth inhibition” value was inactive: 18.2%. For `CCOC(=O)CCc1c(C)nc2cc(C3CCCN(C(=O)OC(C)(C)C)C3)[nH]n2c1=O` (centres undefined), the Potency was inconclusive [inhibitor, partial curve, poor fit]. For `CC(C1SC(=S)NC1=O)C1SC(=S)NC1=O` (centres undefined), the “activity change, negative = growth inhibition” value was inactive: -24.8%. With `COC(=O)[C@]12CCCCC=C1N(Cc1ccc3c(c1)OCO3)C(=O)[C@H](CC(=O)N1CCN(C(=O)C3CC3)CC1)C2` the Potency was inconclusive [inhibitor, single point]. For `CN1C(=O)N(CC(=O)N2CCN(S(=O)(=O)Cc3ccccc3)CC2)C(=O)C12CCCCC2`, the Potency was inconclusive [inhibitor, single point]. For `COc1ccccc1-n1c(CNC(=O)c2ccco2)nnc1SCC(=O)Nc1nccs1`, the Potency was inconclusive [inhibitor, single point]. With `Cn1c(C(=O)NCc2ccccc2F)cc2oc3ccccc3c21` the Potency was inconclusive [inhibitor, partial curve]. With `C=CCN1C(=O)C(Cc2ccc(C)cc2)S/C1=N/N=C/c1ccco1` (centres undefined) the Potency was inconclusive [inhibitor, partial curve]. With `CCCn1c(SCc2ccc(C(=O)OC)o2)nc2ccccc2c1=O` the Potency was inconclusive [inhibitor, partial curve]. For `O=C(CSc1ncc(-c2ccccc2)n1-c1ccccc1)NCc1ccco1`, the Potency was active: 16.4 µM. In the case of `COc1ccc(C(=O)NNC(=O)c2cnccn2)cc1[N+](=O)[O-]`, the “activity change, negative = growth inhibition” value is reported as inactive: -8.01%. With `CC(OC(=O)c1cccc(-n2cnnn2)c1)C(=O)Nc1ccccc1F` (centres undefined) the Potency was inconclusive [inhibitor, single point]. With `COc1cc(-c2cc(=O)c3c(O)cc(O)cc3o2)ccc1O` the Potency was inconclusive [inhibitor, single point]. In the case of `COc1ccc(C(=O)N=c2nc3ccccn3s2)cc1`, the Potency is reported as inconclusive [inhibitor, single point]. In the case of `CSc1ccccc1NC(=O)C1CCCN(S(C)(=O)=O)C1` (centres undefined), the “activity change, negative = growth inhibition” value is reported as inactive: 6.79%. For `Cc1nc2ccccc2c(=O)n1-c1ccc(F)c(NS(=O)(=O)c2ccccc2F)c1`, the “activity change, negative = growth inhibition” value was inactive: -10.5%. For `CN(C)CCCN(C(=O)c1cccs1)c1nc(-c2ccccc2)cs1`, the Potency was inconclusive [inhibitor, single point]. With `COc1ccc(-n2cnnc2SCc2csc(-c3ccccc3)n2)cc1` the “activity change, negative = growth inhibition” value was inactive: -27%. With `COc1cc2nc(/C=C/c3cc(OC)c(OC)c(OC)c3)sc2cc1SC` the Potency was active: 5.8 µM. For `COc1ccc(-c2ccc(C(=O)Nc3ccc(NC(C)=O)cc3)c3occc23)c(C)c1`, the Potency was inconclusive [inhibitor, partial curve, poor fit]. For `COC(=O)c1cccc(NC(=O)CCSc2ccc(Cl)cc2)c1C`, the “activity change, negative = growth inhibition” value was inactive: -28%. With `N/C(=N\OC(=O)COc1ccc(Cl)cc1Cl)c1cccnc1` the Potency was inconclusive [inhibitor, single point].
% is scaled to controls: 0 for no effect and ±100 for the full control effect; potency is read from the fitted curve at half-maximal effect; tags tell the direction and shape of the fitted curve.
